Target: T1, Prostate Stem Cell Antigen (PSCA) (human, UniProt O43653 12-83)
T1 sequence (looked up): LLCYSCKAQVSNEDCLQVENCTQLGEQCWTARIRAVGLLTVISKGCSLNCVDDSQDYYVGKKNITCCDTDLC
Assay: cell-based or functional assay

B1: BICs containing RIBOXXOL and scFv(h-AM1)-BAP (other)
scFv: DAAQPARRARRTKLGTELGSEVQLLESGGGLVQPGGSLRLSCVASGFTFSSYTMSWVRQAPGKGLEWVSYIHNGGGHTYYADSVKGRFTISRDNSKNTLYLQMNSLRAEDTAVYYCTRRMYYGNSHWYFDVWGAGTRVTITSAKTTPPSVYGGGGSGGGGSGGGGSTNSDIQMTQSPSSLSASVGDRVTITCRTSQSISNYLNWYQQKPGKAPKLLIYYTLKLNSGVPSRFSGSGSGTDFTLTISSLQPEDFATYYCQQSKTLPWTFGGGTKLEIKRADAAPTVSGPEQKLISEEDLNSAVDMSGLNDIFEAQKIEWHEGAPSSHHHHHH
chain: ARKCSLTGKWTNDLGSNMTIGAVNSRGEFTGTYITAVTATSNEIKESPLHGTQNTINKRTQPTFGFTVNWKFSESTTVFTGQCFIDRNGKEVLKTMWLLRSSVNDIGDDWKATRVGINIFTRLRTQKE
modifications: mono-biotinylated at the BAP
- IC50 of NF-kappaB activation (SEAP reporter, 293T-Blue^TLR3/PSCA cells): 12.5 nM

Reference: patent US20230338553A1 (TECHNISCHE UNIVERSIT T DRESDEN, published 2023)
